The labels stand for the following.
B1: TEV protease; numbered along this chain (parent)
chain: MGESLFKGPRDYNPISSSICHLTNESDGHTTSLYGIGFGPFIITNKHLFRRNNGTLVVQSLHGVFKVKDTTTLQQHLVDGRDMIIIRMPKDFPPFPQKLKFREPQREERICLVTTNFQTKSMSSMVSDTSCTFPSGDGIFWKHWIQTKDGQCGSPLVSTRDGFIVGIHSASNFTNTNNYFTSVPKNFMELLTNQEAQQWVSGWRLNADSVLWGGHKVFMVKPEEPFQPVKEATQL

Variants of B1 are the subject of the experiment. Kind of experiment: raw area under fraction-flipped curve 0-4 h after induction (AUC4h, not background-subtracted), DNA-recorder readout of cleavage of the substrate (dimensionless); higher = more cleavage of the substrate by the protease variant. Conditions: temperature: 34 °C; time window: 0-4 h after rhamnose induction. How it is done:
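In vivo DNA recorder in E. coli TOP10(DE3) ΔrhaA at 34 °C. Each TEVp single-site mutant (parent TEVp 0) is paired with a single-site variant of the 7-mer TEVs (canonical ENLYFQ|S). The substrate sits between flexible linkers in a Bxb1-sfGFP-TEVs-SsrA fusion, so cleavage stabilises Bxb1 and speeds flipping of a recombination array, read by NGS. The value is the raw area under the fraction-flipped curve over 0-4 h after rhamnose induction (AUC4h), with ≥20 reads per time point. It is not background-subtracted; inactive controls average about 0.047.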

Some of the results follow. Sequences were assembled here from the parent chain. Inactive controls read about 0.05.
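Further: Bxb1 expression induced with 0.2% (w/v) L-rhamnose at OD600 near 0.5, cultures sampled hourly, flipped fraction per protease–substrate barcode pair counted by paired-end Illumina sequencing.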

On to MGESLFKGPRDYNPISSSICHLTNESDGHGTSLYGIGFGPFIITNKHLFRRNNGTLVVQSLHGVFKVKDTTTLQQHLVDGRDMIIIRMPKDFPPFPQKLKFREPQREERICLVTTNFQTKSMSSMVSDTSCTFPSGDGIFWKHWIQTKDGQCGSPLVSTRDGFIVGIHSASNFTNTNNYFTSVPKNFMELLTNQEAQQWVSGWRLNADSVLWGGHKVFMVKPEEPFQPVKEATQL [T30G], for which the “area with substrate ANLYFQS” value is 0.074, the “area with substrate CNLYFQS” value was determined as 0.0997, the “area with substrate GNLYFQS” value stood at 0.0153 and the “area with substrate HNLYFQS” value amounted to 0.0594. The “area with substrate INLYFQS” value was found to be 0.057, the “area with substrate KNLYFQS” value turned out to be 0.0616, the “area with substrate LNLYFQS” value stood at 0.0541 and the “area with substrate MNLYFQS” value turned out to be 0.0678. For the same variant, the “area with substrate NNLYFQS” value came to 0.0605, the “area with substrate PNLYFQS” value amounted to 0.0656, the “area with substrate SNLYFQS” value came out at 0.102 and the “area with substrate TNLYFQS” value worked out at 0.0632. In addition, the “area with substrate VNLYFQS” value came out at 0.0718, the “area with substrate WNLYFQS” value came to 0.0576 and the “area with substrate YNLYFQS” value came out at 0.0617.

As to MGESLFKGPRDYNPISSSICHLTNESDGHTTSLYGIGFGPFIITNKHLFRRNNGTLVVQSLHGVFKVKDTTTLQQHLVDGRDMIIIRMPKDFPPFPQKLKFREPQRESRICLVTTNFQTKSMSSMVSDTSCTFPSGDGIFWKHWIQTKDGQCGSPLVSTRDGFIVGIHSASNFTNTNNYFTSVPKNFMELLTNQEAQQWVSGWRLNADSVLWGGHKVFMVKPEEPFQPVKEATQL [E108S], the “area with substrate ANLYFQS” value came to 0.0455, the “area with substrate CNLYFQS” value worked out at 0.0457, the “area with substrate HNLYFQS” value was found to be 0.0546 and the “area with substrate LNLYFQS” value was found to be 0.0489. The “area with substrate MNLYFQS” value turned out to be 0.0483 and the “area with substrate NNLYFQS” value worked out at 0.0579.

Consider MGESLFKGPRDYNPISSSICHLTNESDGHTTSLYGIGFGPFIITNKHLFRRNNGTLVVQSLHGVFKVKDTTTLQQHLVDGRDMIIIRMPKDFPPFPQKLKFREPQREERICLVTTNFQTKSMSSMVSDTSCTFPSGDGIFWKHWIQTKDGQCGSPLVSTRDGFIVGIHSASNFTNTNNYFTSVPKNFMELLTNQEAQQWVSGWRLNADSVLFGGHKVFMVKPEEPFQPVKEATQL [W212F], for which the “area with substrate ANLYFQS” value amounted to 0.0635, the “area with substrate DNLYFQS” value was 0.0714, the “area with substrate HNLYFQS” value amounted to 0.0572 and the “area with substrate INLYFQS” value is 0.0657. The “area with substrate KNLYFQS” value is 0.0623, the “area with substrate LNLYFQS” value was 0.0849, the “area with substrate MNLYFQS” value turned out to be 0.0521 and the “area with substrate PNLYFQS” value amounted to 0.0717. For the same variant, the “area with substrate QNLYFQS” value worked out at 0.056, the “area with substrate SNLYFQS” value is 0.0576, the “area with substrate TNLYFQS” value was determined as 0.0642 and the “area with substrate WNLYFQS” value is 0.0626. Also, the “area with substrate YNLYFQS” value is 0.0576.

In the case of MGESLFKGPRDYNPISSSICHLTNESDGHTTSLYGIGFGPFIITNKHLFRRNNGTLVVQSLHGVFKVKDTTTLQQHLVDGRDMIIIRMPKDFPPFPQKLKFREPQREERICLVTTNFQTKSWSSMVSDTSCTFPSGDGIFWKHWIQTKDGQCGSPLVSTRDGFIVGIHSASNFTNTNNYFTSVPKNFMELLTNQEAQQWVSGWRLNADSVLWGGHKVFMVKPEEPFQPVKEATQL [M122W], the “area with substrate ANLYFQS” value came out at 0.0568, the “area with substrate CNLYFQS” value amounted to 0.0626, the “area with substrate FNLYFQS” value came to 0.0773 and the “area with substrate GNLYFQS” value is 0.057. Also, the “area with substrate HNLYFQS” value worked out at 0.0649, the “area with substrate INLYFQS” value came out at 0.0514, the “area with substrate LNLYFQS” value is 0.0549 and the “area with substrate NNLYFQS” value worked out at 0.0896. Further, the “area with substrate RNLYFQS” value was determined as 0.079, the “area with substrate TNLYFQS” value is 0.082 and the “area with substrate WNLYFQS” value was 0.0533.

As to MGESLFKGPRDYNPISSSICHLTNESDGHTTSLYGIGFGPFIITNKHLFRRNNGTLVVQSLHGVFKVKDATTLQQHLVDGRDMIIIRMPKDFPPFPQKLKFREPQREERICLVTTNFQTKSMSSMVSDTSCTFPSGDGIFWKHWIQTKDGQCGSPLVSTRDGFIVGIHSASNFTNTNNYFTSVPKNFMELLTNQEAQQWVSGWRLNADSVLWGGHKVFMVKPEEPFQPVKEATQL [T70A], the “area with substrate ANLYFQS” value turned out to be 0.053, the “area with substrate DNLYFQS” value worked out at 0.0695, the “area with substrate FNLYFQS” value came out at 0.0521 and the “area with substrate GNLYFQS” value was determined as 0.0621. Also, the “area with substrate HNLYFQS” value amounted to 0.0638, the “area with substrate INLYFQS” value worked out at 0.0687, the “area with substrate KNLYFQS” value is 0.06 and the “area with substrate MNLYFQS” value is 0.0812. Also, the “area with substrate NNLYFQS” value stood at 0.0706, the “area with substrate TNLYFQS” value was 0.0493, the “area with substrate WNLYFQS” value came to 0.0574 and the “area with substrate YNLYFQS” value was 0.0624.

As for MGESLFKGPRDYNPISSSICHLTNESDGHTTSLYGIGFGPFIIYNKHLFRRNNGTLVVQSLHGVFKVKDTTTLQQHLVDGRDMIIIRMPKDFPPFPQKLKFREPQREERICLVTTNFQTKSMSSMVSDTSCTFPSGDGIFWKHWIQTKDGQCGSPLVSTRDGFIVGIHSASNFTNTNNYFTSVPKNFMELLTNQEAQQWVSGWRLNADSVLWGGHKVFMVKPEEPFQPVKEATQL [T44Y], the “area with substrate ANLYFQS” value was 0.0381, the “area with substrate DNLYFQS” value was 0.0428, the “area with substrate HNLYFQS” value came out at 0.0533 and the “area with substrate KNLYFQS” value turned out to be 0.0451. Further, the “area with substrate MNLYFQS” value was 0.035, the “area with substrate NNLYFQS” value came to 0.0208, the “area with substrate PNLYFQS” value worked out at 0.0379 and the “area with substrate QNLYFQS” value is 0.0311. In addition, the “area with substrate RNLYFQS” value amounted to 0.0505, the “area with substrate SNLYFQS” value was determined as 0.0509, the “area with substrate TNLYFQS” value worked out at 0.0434 and the “area with substrate WNLYFQS” value was determined as 0.0432.

For the variant MGESLFKGPRDYNRISSSICHLTNESDGHTTSLYGIGFGPFIITNKHLFRRNNGTLVVQSLHGVFKVKDTTTLQQHLVDGRDMIIIRMPKDFPPFPQKLKFREPQREERICLVTTNFQTKSMSSMVSDTSCTFPSGDGIFWKHWIQTKDGQCGSPLVSTRDGFIVGIHSASNFTNTNNYFTSVPKNFMELLTNQEAQQWVSGWRLNADSVLWGGHKVFMVKPEEPFQPVKEATQL [P14R], the “area with substrate ANLYFQS” value turned out to be 0.0753, the “area with substrate CNLYFQS” value came to 0.0642, the “area with substrate GNLYFQS” value came out at 0.0179 and the “area with substrate HNLYFQS” value amounted to 0.0664. Also, the “area with substrate INLYFQS” value was found to be 0.0626, the “area with substrate KNLYFQS” value is 0.078, the “area with substrate LNLYFQS” value was found to be 0.074 and the “area with substrate MNLYFQS” value is 0.0038. Also, the “area with substrate QNLYFQS” value was found to be 0.0707, the “area with substrate SNLYFQS” value came to 0.0733, the “area with substrate TNLYFQS” value came to 0.0693 and the “area with substrate WNLYFQS” value was determined as 0.0539.

With MGESLFKGPRDYNPISSSFCHLTNESDGHTTSLYGIGFGPFIITNKHLFRRNNGTLVVQSLHGVFKVKDTTTLQQHLVDGRDMIIIRMPKDFPPFPQKLKFREPQREERICLVTTNFQTKSMSSMVSDTSCTFPSGDGIFWKHWIQTKDGQCGSPLVSTRDGFIVGIHSASNFTNTNNYFTSVPKNFMELLTNQEAQQWVSGWRLNADSVLWGGHKVFMVKPEEPFQPVKEATQL [I19F], the “area with substrate ANLYFQS” value stood at 0.0499, the “area with substrate CNLYFQS” value was 0.0665, the “area with substrate FNLYFQS” value turned out to be 0.0455 and the “area with substrate GNLYFQS” value is 0.0709. Moreover, the “area with substrate HNLYFQS” value was found to be 0.0634, the “area with substrate KNLYFQS” value amounted to 0.0483, the “area with substrate LNLYFQS” value came out at 0.0551 and the “area with substrate MNLYFQS” value was found to be 0.0584. Also, the “area with substrate NNLYFQS” value amounted to 0.0531, the “area with substrate PNLYFQS” value was 0.0656, the “area with substrate RNLYFQS” value amounted to 0.109 and the “area with substrate SNLYFQS” value was found to be 0.0503. Besides, the “area with substrate TNLYFQS” value was determined as 0.049, the “area with substrate VNLYFQS” value was found to be 0.0615, the “area with substrate WNLYFQS” value was found to be 0.058 and the “area with substrate YNLYFQS” value was found to be 0.

As to MGESLFKGPRDYNPISSSICHLTNESDGHTTSLYGIGFGPFIITNKHLFRRNNGTLVVQSLHGVFKVKDTTTLQQHLVDGRDMIIIRMPKDFPPVPQKLKFREPQREERICLVTTNFQTKSMSSMVSDTSCTFPSGDGIFWKHWIQTKDGQCGSPLVSTRDGFIVGIHSASNFTNTNNYFTSVPKNFMELLTNQEAQQWVSGWRLNADSVLWGGHKVFMVKPEEPFQPVKEATQL [F95V], the “area with substrate ANLYFQS” value was 0.04, the “area with substrate CNLYFQS” value worked out at 0.0597, the “area with substrate HNLYFQS” value stood at 0.0417 and the “area with substrate INLYFQS” value amounted to 0.0308. The “area with substrate KNLYFQS” value stood at 0.0445, the “area with substrate LNLYFQS” value came out at 0.0603, the “area with substrate PNLYFQS” value came to 0.0513 and the “area with substrate TNLYFQS” value was determined as 0.0583. In addition, the “area with substrate WNLYFQS” value was determined as 0.0542.

The record behind these values is the supplement of paper PMC12217912.
